Results as given in the RNAGym collection of RNA variant scans (doi:10.1093/nar/gkz1192).
Read counts are not given, so values of variants with three or more changes are uncertain.

B1: CPEB3 Ribozyme (parent)
chain: UAACAGGGGGCCACAGCAGAAGCGUUCACGUCGCAGCCCCUGUCAGAUUCUGGUGAAUCUGCGAAUUCUGCUGUAUAUCUC

Variants of: B1
Experiment: self-cleavage, relative activity (ratio to wild type); higher = more cleavage; in vitro, sequencing
Procedure, shortened: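 CPEB3 self-cleaving ribozyme mutant libraries were made by rounds of error-prone PCR, barcoded, and transcribed in vitro with T7 RNA polymerase for 5 hours at 37°C. Cleavage occurred during transcription and a 15 min DNase I step before EDTA stop. RNAs were reverse transcribed with template switching and Illumina-sequenced, with DNA sequencing mapping barcodes to variants. Relative activity is the variant's cleaved/total read fraction divided by wild type's (minimum 5 reads), averaged across three batches.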

Variant	self-cleavage
AAACAGGGGGCCACAGCAGAAGCGUUCACGUCGCAGCCCCUGUCAGAUUCAGGUGAAUCUGCGUAUUCUGCUGUAUAUCUC	0.26
CACCAGGGGACCACAGCAGAAGCGUUCACGUCGCAGCCCCUGUCAGAUUCUGGUGAAUCUGCGAAUCCUGCUGUAUAUCUC	0.05
CGACAGGGGGCCACAGCAGAAGCGUUCUCGUCGCAGCCCCUGUCAGAUUCAGGUGAAUCCGCGGAUUCUGCUGUAUAUCUC	0.18
AAACAGGGGGCCACAGCAGAAGCGUUCACGUCGCAGCCCCUGGCAGAUUCUGGUGAAUCCGCAAAUUCUGCUGUAUAUCUC	0.09
AAACAGGGGGCCACAGCAGAAGCGUUCACGUCGCAGCCCCUGCCAGAUUCUGGUGAGUCUGCGAAUUCCGCUGUAUAUCUC	0.12
CCACUGGGGGCCACAGCAGAAGCGUUCAAGUCGCAGCCCCCGUCAGAUUCUGAUGAAUCUGCGAAUUCUGCUGUAAAUCUC	0.65
AAACAGGGGGCCACAGCAGAAGCGUUCACGUCGCAGCCCCUGUCAGAUUCUGGUGAAUCUGCGAAUUCUGCUGCAUGUCUC	1.19
CUACAGGGGGCCACAGCAGAAGCGUUCACGUCGCAGCCCCCGUCAGACCCUGGUGAAUCUGCGAAUUCUGCUGUAUAUCUC	0.25
AAACAGGGGGCCACAGCAGAAGCGUUCACGUCGCAGCCCCUGUCAGAUUCUGGAGAAUCUGCGAAUUCUGCUGUAUAUCCC	1.12
CGACAGGGGGCCACAGCAGAAGCGUUCACGUCGCUGCCCCUGUCAGAUCCUAGCGAAUCAGCGAAUUCUGCUGUAUAUCUC	0.05
AAACAGGGGGCCACAGCAGAAGCGUUCACGUCGCAGCCCCUGUCAGAUUCCGGAGAAUCUGCGAAUUCUGCUGUAUAUCUC	1.14
CGACAGGGGGCCACAGCAGAAGCGUUCACGUCGCAGCCCCCGACAGAUUCUGGUGAAUCUGCGAAUUCUGCUGUAUAUCUC	0.71
AAACAGGGGGCCACAGCAGAAGCGUUCACGUCGCAGCCCCUGUCAGAUUCUGGUGAACCAGCGAACUCUGCUGUAAAUCUC	0.18
AAACAGGGGGCCACAGCAGAAGCGUUCACGUCGCAGCCCCCGUCAGAUUCUGGCGAAUCUGCGAAUUCUGCUGUAUACCUC	0.89
AAACAGGGGGCCACAGCAGAAGCGUUCACGUCGCAGCCCCUGUCAGAUACUGGUGAACCUGCGAAUUCUGCUGUAUACCUC	0.29
CAGCGGGGGGCCACAGCAGAAGCGUUCACGUCGCAGCCCCUGUCAGAUUCUGGUCAGUCUGCGAAUUCUGCCGUUUAUCUC	0.32
AAACAGGGGGCCACAGCAGAAGCGUUCACGUCGCAGCCCCUGUCAGAUUCUGGUGAAUCCGCGAAUUCUGCAGUAUAUCUC	0.18

Variant	self-cleavage
CUACAGGGGGCCACAGCAGAAGCGUUCACGACGCAGCCCCAGUCAGAUUCUGGUGAAUCUGCGAAUUCCGCUGUACAUCUC	0.18
AAACAGGGGGCCACAGCAGAAGCGUUCACGUCGCAGCCCCUGUCAGAUUCCGGUGAAUCUGCGAAUUCUGCUGUACAUCCC	0.67
CGACAGGGGGCCACAUCAGAAGCGUUCACGUCGCAGCCCCUGUCAGAUUCUGGUGAAUCUGCGAAUUCUGCUGUAUAUCUC	0.36
CGACAGGGGGCCACAGCAUAAGCGUUCACGUCGCAGCCCCUGUCAGAUUCUGGUGAAUCGGCGGAUUCUGCUGUAUAUCAC	0.12
CGACAGGGGGCCACAGCGGAAGCGUACACGUCGCGGCCCCUGUCAGAUUCUGGUGAAUCUGCGAAUUUUGCCGUAUAUCUC	0.09
AAACAGGGGGCCACAGCAGAAGCGUUCACGUCGCAGCCCCUGUCAGAUUCCGGUAAAUCUGCGAACUCUGCUGUAUAUCUC	0.25
CUACAGGGGGCCACAGCAGAAGCGUUCACGUCGCAGCCCCUGUCAGAUUCUGGUGAAUCUGCGAAUUCUGCCGUAUAUCUC	0.5
AAACAGGGGGCCACAGCAGAAGCGUUCACGUCGCAGCCCCUGUCAGAUUCGGGUGAAUCUGCGAAUCCAGCUGUAUAUCUC	0.23
CGACAGGGGGCCACAGCAGAAGCGUUCACGUCGCAGCCCCUGUCAGGUUCUGGUGAAUCUGCGAAUUCUGCUGUAUAUCUC	0.4
CGACAGGGGGCCACAGCAGAAGCGUUCACGUCGCAGCCCCUGUCAGCUUCUGGUGAAUCUGCGAAUUCUGCUGUAUAUCUC	0.5
AAACAGGGGGCCACAGCAGAAGCGUUCACGUCGCAGCCCCAGUCCGGUUCUGGCGAAUCUGCGAAUUCUGCCGUAUAUCUC	0.17
CGACAGGGGGCCACGGCAGAAGCGUUCACGUCGCAGCCCCUGUCAGAUUCUGGUGAAUCUGCGAAUUCUGCUGUAUAUCUC	0.57
CUACAGGGGGCCACAGCAGAAGCGUUCAAGUCGCAGCCCCAGUCAGAUUCUGGAGAAUCUGCGAAUUCUGCUGUAUAUCCC	0.37
AAACAGGGGGCCACAGCAGAAGCGUUCACGUCGCAGCCCCUGCCGGAUUCUGGUGAAUCUGCGAAUUCUGAUGUAUAUCUC	0.12
CCACAGGGGGCCACAGCAGAAGCGUUCAAGUCGCAGCCCCCGUCAGAUUCUGAUGUAUCUGCGAAUUCUGCUGUAUAUCUC	0.09
AAACAGGGGGCCACAGCAGAAGCGUUCACGUCGCAGCCCCUGUCAGAUUCAGGUGAGUCUGCGGAUUCUGCUGUAUAUCUC	0.45
AAACAGGGGGCCACAGCAGAAGCGUUCACGUCGCAGCCCCUGUCAGAUUCUGGUGAAUCUGCGAACUCUGCUGUAUACCUC	0.21
